# Experimental data taken from the RNAGym collection of RNA variant scans (doi:10.7554/elife.90254).
# Read counts are not given, so values of variants with three or more changes are uncertain.
# B1: LINE1-mini (parent)
# chain: GGCAGAGCUCAACACAGCGUGGCAAAGUGGCUGUGGCUAGACUGCC
# Variants of: B1
# Assay: self-cleavage, relative activity (ratio to wild type); higher = more cleavage; in vitro, sequencing; the parent is a self-cleaving ribozyme
row,Variant,self-cleavage
1,A6U C18G A26C,0.14
2,A6U A12G G44U C45G,0.01
3,A6U A24C G40A,0.06
4,A6U A16U G22A A25U G40C,0.02
5,A6U G7C C18A U20G G22A G35A C37U A39G,0.01
6,A6U C15U G29A C31U U38C,0.16
7,A6U A41G C46G,1.58
8,A6U C31U G35U,0.05
9,A6U C8A U32A,0.02
10,A6U G7U C46G,0.29
11,A6U A24U C45U,0.48
12,A6U A14G G40A,0.03
13,A6G U9A G33A G35A,0.06
14,A6G G29C C37U A39G C42G,0
15,A6G G22C U28C G29U,0.04
16,A6U C15A A26G,0.08
17,A6U G7C U9C G19C,0.03
18,A6U A16G G44U,0.06
19,A6G G22U C31U G44U,0.03
20,A6U C15G G33A,0.06
21,A6G U20A A41G,0.11

row,Variant,self-cleavage
1,A6U G7C A41U,0.21
2,A6U C10G A14C A25U A26C G36C C45U,0
3,A6G G36U C45U,0.05
4,A6U C15A C42U,0.08
5,A6U C23U G36U A41G C45A,0.55
6,A6U A12U U20G G29A,0.09
7,A6G G27U C46A,0.1
8,A6G G22U G35C G40A A41U,0.09
9,A6G G22C G29A,0.11
10,A6G U20A G44U,0.1
11,A6U C10A G19A,0.11
12,A6U G7C C15A G27A,0.09
13,A6U G17U G29C,1.22
14,A6U C18U G35U,0.18
15,A6G G30A C31A C42U,0
16,A6U A11U G22U,0.34
17,A6U C13A G21A,0.24
18,A6U C15U U34G,0.3
19,A6U C10U A16U G30U C31A A39C,0.03
20,A6G G36C C37U C45G C46U,0
21,A6U G17U U20G C31U U38A,0.03

row,Variant,self-cleavage
1,A6G U28A C42G,0
2,A6U C18U U20G G30A C31U,0.31
3,A6U C18G A25C G27U A39G C42U,0.04
4,A6G U32A C46U,0.05
5,A6U A14U G19C G29A G33A U38A,0.01
6,A6U A12U G17A C18G C46A,0.02
7,A6U G7C A16U C23G G44U C46A,0.21
8,A6U C10G G30A,0.04
9,A6U A11C A12U C18U G19U C37A G40U,0.01
10,A6U C15U U20A G22U C23U G36A C37A C42U,0.16
11,A6U C10A C13U G36C C37G,0
12,A6U C13U C23U A26C,0.08
13,A6G U9G C37A,0.08
14,A6U C18U G44C,0.12
15,A6G G33A G40A,0.04
16,A6U C13A A24U G30A,0.02
17,A6U A16C U20C G21C G36U U38A,0.01
18,A6U C10U C15A G19U A39C C46G,0.02
19,A6U C8U C10A G21U,0.09
20,A6U C10U C13A C15G U28C G33A U43A,0
21,A6U C18A C31A,0.07

row,Variant,self-cleavage
1,A6U C37G A39G,0.02
2,A6U A11G G19A G29U G36U,0
3,A6U C23U U28A C37G,0.01
4,A6U A14U U32A G44U,0.04
5,A6U A16G G30C,0.24
6,A6U A14C C42G,0.08
7,A6G U20A G29A,0.05
8,A6G G29U U38A,0
9,A6G G30A C46A,0.09
10,A6G U9C A11G A16G C23G,0
11,A6U A12G G19C G35C,0.02
12,A6U C8G A11G A14G C18U G40C C46U,0.01
13,A6U C15U G19A A25U G29U,0.34
14,A6U A26G C31A,0.14
15,A6U A14C A16C G36C C37U A39U,0.03
16,A6G G36U C37A U38C,0.03
17,A6U C15A U20G U34C,0.04
18,A6U A14G A41G,0.09
19,A6U A14U G17U A24U,0.09
20,A6U G19A A24C C45A,0.09
